# The other results are listed elsewhere or left out.
# B1: Gal 3 (Homo sapiens), P17931 (protein)
# chain: MADNFSLHDALSGSGNPNPQGWPGAWGNQPAGAGGYPGASYPGAYPGQAPPGAYPGQAPPGAYHGAPGAYPGAPAPGVYPGPPSGPGAYPSSGQPSAPGAYPATGPYGAPAGPLIVPYNLPLPGGVVPRMLITILGTVKPNANILDFQRGNDVAFHFNPRFNENNRRVIVCNTKLDNNWGREEIQSVFPFESGKPFKIQVLVEPDHFKVAVNDAHLLQYNHRVKKLNEISKLGISGDIDLTSASYTMI
# Legend:
# Assay in all cases: glycan array binding signal (z-score within array); higher = stronger binding
# Conditions in all cases: glycan notation: IUPAC condensed, linker removed; mutation: R186I
# [1] = target: Neu5Ac(a2-6)Gal(b1-4)GlcNAc(b1-2)Man(a1-3)Man(b1-4)GlcNAc(b1-4)GlcNAc
# How it was run: (§1)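 Arrays were curated from the Consortium for Functional Glycomics database, 3228 in total, and kept only where the protein sequence was available. Binding is expressed as a within-array Z-score. This score was averaged across arrays of the same protein sequence at different concentrations or buffers and across linkers, and negative values can be read as non-binding.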
# [2] = target: Neu5Ac(a2-6)Gal(b1-4)GlcNAc(b1-2)Man(a1-3)[Gal(b1-4)GlcNAc(b1-2)Man(a1-6)]Man(b1-4)GlcNAc(b1-4)GlcNAc
# How it was run: as §1
# [3] = target: Neu5Ac(a2-6)Gal(b1-4)GlcNAc(b1-2)Man(a1-3)[GlcNAc(b1-2)Man(a1-6)]Man(b1-4)GlcNAc(b1-4)GlcNAc
# How it was run: as §1
# [4] = target: Neu5Ac(a2-6)Gal(b1-4)GlcNAc(b1-2)Man(a1-3)[GlcNAc(b1-2)Man(b1-4)GlcNAc(b1-2)Man(a1-6)]Man(b1-4)GlcNAc(b1-4)GlcNAc
# How it was run: as §1
# [5] = target: Neu5Ac(a2-6)Gal(b1-4)GlcNAc(b1-2)Man(a1-3)[Man(a1-6)]Man(b1-4)GlcNAc(b1-4)GlcNAc
# How it was run: as §1
# [6] = target: Neu5Ac(a2-6)Gal(b1-4)GlcNAc(b1-2)Man(a1-3)[Neu5Ac(a2-6)Gal(b1-4)GlcNAc(b1-2)Man(a1-6)]Man(b1-4)GlcNAc(b1-4)GlcNAc
# How it was run: as §1
# [7] = target: Neu5Ac(a2-6)Gal(b1-4)GlcNAc(b1-2)Man(a1-6)Man(b1-4)GlcNAc(b1-4)GlcNAc
# How it was run: as §1
# [8] = target: Neu5Ac(a2-6)Gal(b1-4)GlcNAc(b1-2)Man(a1-6)[Gal(b1-4)GlcNAc(b1-2)Man(a1-3)]Man(b1-4)GlcNAc(b1-4)GlcNAc
# How it was run: as §1
# [9] = target: Neu5Ac(a2-6)Gal(b1-4)GlcNAc(b1-2)Man(a1-6)[GlcNAc(b1-2)Man(a1-3)]Man(b1-4)GlcNAc(b1-4)GlcNAc
# How it was run: as §1
# [10] = target: Neu5Ac(a2-6)Gal(b1-4)GlcNAc(b1-2)Man(a1-6)[Man(a1-3)]Man(b1-4)GlcNAc(b1-4)GlcNAc
# How it was run: as §1
# [11] = target: Neu5Ac(a2-6)Gal(b1-4)GlcNAc(b1-3)Gal(b1-3)GlcNAc
# How it was run: as §1
# [12] = target: Neu5Ac(a2-6)Gal(b1-4)GlcNAc(b1-3)Gal(b1-4)GlcNAc
# How it was run: as §1
# [13] = target: Neu5Ac(a2-6)Gal(b1-4)GlcNAc(b1-3)Gal(b1-4)GlcNAc(b1-3)Gal(b1-4)GlcNAc
# How it was run: as §1
# [14] = target: Neu5Ac(a2-6)Gal(b1-4)GlcNAc(b1-3)Gal(b1-4)[Fuc(a1-3)]GlcNAc(b1-3)Gal(b1-4)[Fuc(a1-3)]GlcNAc
# How it was run: as §1
# [15] = target: Neu5Ac(a2-6)Gal(b1-4)GlcNAc(b1-3)GalNAc
# How it was run: as §1
# [16] = target: Neu5Ac(a2-6)Gal(b1-4)GlcNAc6S
# How it was run: as §1
# Neu5Ac(a2-6)GalNAc = target: Neu5Ac(a2-6)GalNAc
# How it was run: as §1
# [17] = target: Neu5Ac(a2-6)GalNAc(b1-4)GlcNAc
# How it was run: as §1
# [18] = target: Neu5Ac(a2-6)GlcNAc(b1-4)GlcNAc
# How it was run: as §1
# [19] = target: Neu5Ac(a2-6)GlcNAc(b1-4)GlcNAc(b1-4)GlcNAc
# How it was run: as §1
# Neu5Ac(a2-8)Neu5Ac = target: Neu5Ac(a2-8)Neu5Ac
# How it was run: as §1
# [20] = target: Neu5Ac(a2-8)Neu5Ac(a2-3)Gal(b1-4)Glc
# How it was run: as §1
# [21] = target: Neu5Ac(a2-8)Neu5Ac(a2-3)[GalNAc(b1-4)]Gal(b1-4)Glc
# How it was run: as §1
# [22] = target: Neu5Ac(a2-8)Neu5Ac(a2-8)Neu5Ac
# How it was run: as §1
# [23] = target: Neu5Ac(a2-8)Neu5Ac(a2-8)Neu5Ac(a2-3)Gal(b1-4)Glc
# How it was run: as §1
# [24] = target: Neu5Ac(a2-8)Neu5Ac(a2-8)Neu5Ac(a2-3)[GalNAc(b1-4)]Gal(b1-4)Glc
# How it was run: as §1
# [25] = target: Neu5Ac(a2-8)Neu5Ac(a2-8)Neu5Ac(a2-8)Neu5Ac(a2-3)[GalNAc(b1-4)]Gal(b1-4)Glc
# How it was run: as §1
# [26] = target: Neu5Ac(b2-6)Gal(b1-4)GlcNAc
# How it was run: as §1
# Neu5Ac(b2-6)GalNAc = target: Neu5Ac(b2-6)GalNAc
# How it was run: as §1
# [27] = target: Neu5Ac9Ac(a2-3)Gal(b1-3)GlcNAc
# How it was run: as §1
# [28] = target: Neu5Ac9Ac(a2-3)Gal(b1-4)GlcNAc
# How it was run: as §1
# [29] = target: Neu5Ac9Ac(a2-6)Gal(b1-4)GlcNAc
# How it was run: as §1
# [30] = target: Neu5Gc(a2-3)Gal(b1-3)GlcNAc
# How it was run: as §1
# [31] = target: Neu5Gc(a2-3)Gal(b1-3)[Fuc(a1-4)]GlcNAc
# How it was run: as §1
# Neu5Gc(a2-3)Gal(b1-4)Glc = target: Neu5Gc(a2-3)Gal(b1-4)Glc
# How it was run: as §1
# [32] = target: Neu5Gc(a2-3)Gal(b1-4)GlcNAc
# How it was run: as §1
# [33] = target: Neu5Gc(a2-3)Gal(b1-4)[Fuc(a1-3)]GlcNAc
# How it was run: as §1
# [34] = target: Neu5Gc(a2-6)Gal(b1-4)GlcNAc
# How it was run: as §1
# Neu5Gc(a2-6)GalNAc = target: Neu5Gc(a2-6)GalNAc
# How it was run: as §1
# [35] = target: Neu5Gc(b2-6)Gal(b1-4)GlcNAc
# How it was run: as §1
binder,measurement,setting,value
B1,glycan array binding signal (z-score),[1],-0.155
same,glycan array binding signal (z-score),[2],-0.156
same,glycan array binding signal (z-score),[3],-0.151
same,glycan array binding signal (z-score),[4],0.736
same,glycan array binding signal (z-score),[5],-0.129
same,glycan array binding signal (z-score),[6],0.034
same,glycan array binding signal (z-score),[7],-0.139
same,glycan array binding signal (z-score),[8],-0.176
same,glycan array binding signal (z-score),[9],-0.173
same,glycan array binding signal (z-score),[10],-0.186
same,glycan array binding signal (z-score),[11],-0.146
same,glycan array binding signal (z-score),[12],0.078
same,glycan array binding signal (z-score),[13],-0.107
same,glycan array binding signal (z-score),[14],-0.183
same,glycan array binding signal (z-score),[15],0.046
same,glycan array binding signal (z-score),[16],-0.186
same,glycan array binding signal (z-score),Neu5Ac(a2-6)GalNAc,-0.095
same,glycan array binding signal (z-score),[17],-0.157
same,glycan array binding signal (z-score),[18],-0.196
same,glycan array binding signal (z-score),[19],-0.157
same,glycan array binding signal (z-score),Neu5Ac(a2-8)Neu5Ac,-0.178
same,glycan array binding signal (z-score),[20],-0.192
same,glycan array binding signal (z-score),[21],0.11
same,glycan array binding signal (z-score),[22],-0.048
same,glycan array binding signal (z-score),[23],-0.046
same,glycan array binding signal (z-score),[24],0.114
same,glycan array binding signal (z-score),[25],-0.173
same,glycan array binding signal (z-score),[26],-0.199
same,glycan array binding signal (z-score),Neu5Ac(b2-6)GalNAc,-0.167
same,glycan array binding signal (z-score),[27],-0.19
same,glycan array binding signal (z-score),[28],-0.093
same,glycan array binding signal (z-score),[29],-0.185
same,glycan array binding signal (z-score),[30],0.124
same,glycan array binding signal (z-score),[31],-0.11
same,glycan array binding signal (z-score),Neu5Gc(a2-3)Gal(b1-4)Glc,-0.178
same,glycan array binding signal (z-score),[32],-0.157
same,glycan array binding signal (z-score),[33],-0.165
same,glycan array binding signal (z-score),[34],-0.181
same,glycan array binding signal (z-score),Neu5Gc(a2-6)GalNAc,-0.142
same,glycan array binding signal (z-score),[35],-0.169
